Several values for one entry are separate records, joined by “and”; a condition that tells them apart may be missing. Equal values may be shown once. Among all 71,000 compounds or so, about 1,800 (2.5%) were called active. Inconclusive means that the source gave no clear call. Such entries were picked first, then a sample of the others. Calls follow the shape of the dose curve; as a rule, active = well fitted activation curve with a large enough effect in the signal ratio, with a control signal flat (not every such curve was filed as active); inconclusive = small, poorly fitted or top-dose-only effect, or effect the other way, or a change in a side signal; inactive = flat fitted curve, though single readings scatter; the % refers to the signal ratio. Where the call is inconclusive, the potency comes from a doubtful curve fit.
Assay: Cell signaling CRE-BLA (Fsk stim); as to activity change, negative = inhibition: % of control where 0% means no effect
Conditions: CHO CRE-bla reporter (cAMP response element driving beta-lactamase), forskolin EC10, beta-lactamase ratio; activity change, negative = inhibition: at 38.2 µM (top of the series) unless noted
Procedure, shortened: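 Modulation of forskolin signalling: compounds in titration series added with EC10 NKH 477 to CHO cells carrying a CRE-driven beta-lactamase reporter, 3 h, 37C. CCF4 FRET ratio (460/530 nm, ex 405 nm) gives %activity and AC50.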
Potency is read from the fitted curve at half-maximal effect; tags tell the direction and shape of the fitted curve.

SMILES	activity change, negative = inhibition	Potency
Nc1nonc1-c1nc2ccccc2n1Cc1ccccc1	inconclusive: 19.1%	
COc1ncnc2c1N[C@@](C)(O)c1c(F)c(F)c(F)c(F)c1S2	inconclusive: 18.1%	
Cc1ccc(S(=O)(=O)N2CCCC2C(=O)Nc2nc3ccccc3s2)cc1 (configuration not stated)	inconclusive: -17.7%	
COc1ccc(CCNC(=O)C2CCN(S(=O)(=O)N3CCOCC3)CC2)cc1OC		inconclusive: 3.16 µM [falling, single point]
COc1ccc(-c2nnc(SCCOc3cccc(C)c3)n2N)cc1	inconclusive: -10.7%	
COC(=O)c1sc2nc3c(cc2c1N)C(=O)CC(C)(C)C3	inactive: 5.11%	
COc1ccc(OC)c(C(=O)COC(=O)CNC(=O)C2CCCCC2)c1		inconclusive: 0.631 µM [falling, partial curve]
Brc1ccc2ncnc(Nc3ccc(N4CCOCC4)cc3)c2c1	inactive: 0.36%	
CCN1C(=O)/C(=C\N2CCCc3ccccc32)SC1=S	inactive: -2.33%	
CC12CC(NC(=O)N1c1cccc(C(=O)N3CCN(c4ccccc4)CC3)c1)c1ccccc1O2 (configuration not stated)	inactive: 9.67%	
COc1ccc2cc3cc(C(=O)NCCN4CCN(Cc5ccccc5)CC4)oc3nc2c1	inconclusive: -18.1%	
CC(C)(C)c1ccc(-c2nnc(SCc3ccc(Cl)cc3)n2-c2cccc(C(F)(F)F)c2)cc1	inactive: 4.07% [at 7.6 µM]	
COc1ccc(C2C(C(=O)Nc3cccc(C)n3)CCC(=O)N2c2ccc(OC)cc2)cc1 (configuration not stated)		inconclusive: 0.158 µM [falling, full curve, poor fit]
COc1ccc(-c2[nH]nc3oc(=O)cc(C)c23)cc1		inconclusive: 12.6 µM [rising, single point]
CCOC(=O)c1c(NC(C)=O)sc2c(O)c(CN3CCN(CC)CC3)ccc12		inconclusive: 20 µM [rising, single point]
O=C1CSC(c2ccccc2F)N1c1cc(Cl)ccc1O (configuration not stated)	inconclusive: -26%	
CC1(C)CC(=O)C2=C(C1)Nc1ncnn1C2c1ccccn1 (configuration not stated)	inactive: -2.6%	
Cc1noc(C)c1C(=O)OCC(=O)/C=C1\N(C)c2ccccc2C1(C)C	inconclusive: 28.4%	
CCOc1ccc(C2C(C#N)=C(N)N3C(=C2C#N)Sc2ccccc23)cc1 (configuration not stated)		inconclusive: 10 µM [rising, partial curve]
Cc1cc2oc(=O)c3c(c2cc1OC(=O)c1ccco1)CCCC3	inactive: 11.8%	
COC(=O)[C@@]1(Cc2ccc(OC)cc2)[C@H]2c3cc(C(=O)N4CCCC4)n(CCN4CNCC4=O)c3C[C@H]2CN1C(=O)c1ccccc1	inactive: -14.1%	

SMILES	activity change, negative = inhibition	Potency
C=CCSc1nc2c(c(=O)[nH]c(=O)n2C)n1Cc1ccc(C)cc1		active: 2.51 µM
C=CCNS(=O)(=O)c1ccc(OC)c(C)c1	inconclusive: -9.58%	
N/C(CC/C(N)=N/O)=N\O	inactive: 4.74% [at 7.6 µM]	
CCc1nc(SCC(=O)N2CCCC2)c2ccccc2n1	inconclusive: 20.2%	
CC1CCCCN1CCCNC(=O)C1CCN(c2nc3ccccc3o2)CC1 (configuration not stated)	inactive: -9.23%	
Cc1occc1-c1nnc(SCc2cc(=O)n3cc(Br)ccc3n2)n1C	inactive: 21.1%	
O=C1C2C(C(=O)N1Cc1ccco1)C1C=CC2C12CC2 (configuration not stated)	inconclusive: -9.47%	
CCN(CC)c1cccc(OCC(=O)N(C)CCC#N)c1		inconclusive: 10 µM [rising, single point]
Cc1cc(C)cc(-n2nnc(C(=O)NCc3ccco3)c2N)c1		inconclusive: 3.98 µM [rising, partial curve]
CNc1nc(C)nc(-c2ccccc2O)n1		inconclusive: 10 µM [rising, partial curve]
Cc1c(NC(=O)c2cc(-c3ccccc3)on2)c(=O)n(-c2ccccc2)n1C	inconclusive: -0.769%	
Cn1c(=O)cc(NCCc2ccccc2)[nH]c1=O	inactive: 4.71%	
CCOC(=O)c1ccc(Nc2cc(C)nc(N3CCOCC3)n2)cc1		inconclusive: 10 µM [rising, partial curve]
CC=C(Cl)Cl	inactive: -9.28%	
COc1ccc(CNc2ccnc(-c3ccc(N(C)C)cc3)n2)c(OC)c1		inconclusive: 15.8 µM [rising, single point]
NC(=O)C1CC=CCC1C(=O)OCC(Cl)=C(Cl)Cl (configuration not stated)	inactive: -9.86%	
O=C(Nc1ccccc1)N1CC[C@@]2(CCCN(C(=O)c3cccc(F)c3)C2)C1	inactive: -6.6%	
CCC(c1nnnn1Cc1ccc(F)cc1)N1CCN(C2CCCCC2)CC1 (configuration not stated)	inactive: -2.18%	
O=C(NC(Cc1ccccc1)c1nc2ccccc2[nH]1)C1CC(=O)N(c2ccc3c(c2)OCCO3)C1 (configuration not stated)	inconclusive: -23.1%	
COC(=O)Cn1c(=NC(=O)CSC(C)=O)sc2ccccc21		inconclusive: 20 µM [rising, single point]
Cc1noc(C)c1CSc1nnnn1-c1ccc(Cl)cc1	inconclusive: -0.499%	

SMILES	activity change, negative = inhibition	Potency
COc1ccc(Cn2nnnc2CN(Cc2cc3cccc(C)c3[nH]c2=O)C2CCCC2)cc1	inactive: 4.01%	
CC(C)CC(C(=O)NCc1ccccn1)N1C(=O)c2ccccc2C1=O (configuration not stated)	inconclusive: -9.86%	
CC(C)CN(CC(C)C)S(=O)(=O)N1CCC(C(=O)NCc2ccccn2)CC1	inconclusive: -8.62%	
CCn1cc(C(=O)NCCCN2CC(C)CC(C)C2)c2cc(OC)c(OC)cc2c1=O (configuration not stated)		inconclusive: 10 µM [rising, single point]
COC(=O)c1ccc2c(=O)n(CCCCCC(=O)NCc3ccccn3)c(=O)[nH]c2c1	inactive: -30%	
CCOC(=O)N1CCN(C(=O)c2cn(CC(C)C)c(=O)c3c2c2ccccc2n3C)CC1	inactive: -12.6%	
COc1ccccc1N1CCN(C(=O)c2ccc(Br)s2)CC1	inactive: -14%	
O=C(Nc1ccc(C(F)(F)F)cc1)C1CCCN1S(=O)(=O)c1cccc2cccnc12 (configuration not stated)	inconclusive: 5.25%	
CC(=O)N(Cc1cc(=O)[nH]c2ccccc12)c1cccc(C)c1	inconclusive: -10.5%	
CCCCCNC(=O)c1cc(S(=O)(=O)N2CCCCC2)ccc1F	inconclusive: 0.664%	
CCc1nc(N)c(C#N)c(-c2ccc(O)c(OC)c2)c1C		active: 10 µM
COc1ccccc1NC(=O)COc1ccc(CO)cc1Cl		inconclusive: 12.6 µM [rising, partial curve]
Cc1cc(C)n(-c2nnc(C)n2/N=C/c2cc(Br)ccc2OCc2ccccc2)n1		inconclusive: 0.251 µM [rising, partial curve]
COc1cc([C@H]2c3cc4c(cc3[C@@H](O)[C@@H]3COC(=O)[C@H]23)OCO4)cc(OC)c1OC		active: 79.4 nM and active: 12.6 nM
COCC(C)n1c(SCc2ccc(C(=O)OC)o2)nc2ccccc2c1=O (configuration not stated)		active: 10 µM
COc1ccc(OC)c2c(C)cc(N3CCCN(C)CC3)nc12	inactive: 3.67%	
O=C(OCC(=O)N1CCN(C(=O)COC(=O)c2ccncc2)CC1)c1ccncc1	inconclusive: -2.99%	
c1ccc(CNn2nnnc2-c2ccccc2)cc1	inactive: -2.16%	
CN1/C(=C\C(=O)c2ccco2)C(C)(C)c2ccccc21		inconclusive: 12.6 µM [rising, partial curve]
COc1ccc(N2CCN(c3ncnc4nc[nH]c34)CC2)cc1		inconclusive: 25.1 µM [falling, single point]
CCOC(=O)c1c(N)sc(C(=O)Nc2ccc3c(c2)OCO3)c1C		inconclusive: 25.1 µM [rising, single point]

SMILES	activity change, negative = inhibition	Potency
Cc1cccn2c(=O)c3cc(C(=O)N4CCN(C(=O)c5ccco5)CC4)n(C)c3nc12		active: 15.8 µM
O=C(c1cccnc1)N1CCN(C(=O)c2cccs2)CC1		inconclusive: 20 µM [rising, partial curve]
O=C(Nc1ccc2c(c1)OCO2)c1noc2c1CCCCC2		inconclusive: 6.31 µM [falling, partial curve]
CCOC(=O)c1[nH]nc(-c2c(O)cc(C)cc2O)c1-c1csc(C)n1	inactive: -4.23%	
O=C(CN1C(=O)NC(Cc2ccccc2)C1=O)Nc1ccccc1 (configuration not stated)	inconclusive: 9.97%	
O=C(O)c1ccccc1C(=O)NCC(O)COCC1CC=CCC1 (configuration not stated)		inconclusive: 0.02 µM [rising, single point]
Cc1noc(NS(=O)(=O)c2ccc(NC(=O)c3cnc4scc(C)n4c3=O)cc2)c1C		inconclusive: 12.6 µM [rising, single point]
COc1ccc(S(=O)(=O)N2CCCN(CC(=O)Nc3ccc4c(c3)OCO4)CC2)cc1	inconclusive: 1.46%	
COc1ccccc1C(=O)NCCc1nc2ccccc2n1C		inconclusive: 10 µM [rising, partial curve]
COc1ccc2oc(=O)c(NC(=O)C3CCCCC3)cc2c1	inconclusive: -7.83%	
O=c1[nH]c2ccc(S(=O)(=O)N3CCN(C4CCCCC4)CC3)cc2[nH]c1=O	inconclusive: 15.1%	
Cc1cc(NC(=O)C2CCCCC2)nc2c1c(=O)oc1ccccc12		inconclusive: 20 µM [rising, single point]
COc1ccccc1OCCC(=O)OCC(=O)NC(=O)NC(C)(C)C	inconclusive: 12.8%	
COc1ccc(CN2C(=O)CN=C2Nc2cccc(C)c2C)cc1	inactive: 4.5%	
CCN(CC)S(=O)(=O)c1cc(C(=O)NC2CCCCC2)ccc1C	inconclusive: 8.93% [at 7.6 µM]	
COc1ccc(CCNC(=O)CSc2nc(-c3ccco3)cc(C(F)(F)F)n2)cc1OC	inconclusive: 19.8%	
Cc1ccccc1-c1ccc2ncnc(NCc3cccs3)c2c1	inactive: -19.1%	
COc1cc2c(C(=O)NCCCOC(C)C)cn(CC(C)C)c(=O)c2cc1OC		inconclusive: 10 µM [rising, partial curve]
Cc1nc(SCC(=O)NCc2ccco2)c2c3c(sc2n1)CCCC3		inconclusive: 6.31 µM [rising, partial curve]

Reference: PubChem BioAssay AID662 (National Center for Advancing Translational Sciences (NCATS), 2007)
